Measured values as given in the supplement of paper PMC7125110.
± gives the standard error. Variants at the background level are over-represented here.

B1: glmS ribozyme (parent)
chain: AUAAAAGCGCCAGAACUACAGAAAUGUAGUUGACGAGGAGGAGGUUUAUCGAAUUUUCGGCGGAUGCCUCCAAA

Columns and labels:
Settings in all cases: with glucosamine-6-phosphate
glucosamine-6-phosphate [1] = variants of: B1; assay: self-cleavage kobs at 640 uM GlcN6P; higher = faster cleavage; RNA array
In short: (§1)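 E. coli RNA polymerase transcribed barcoded ribozyme variants in situ on sequenced MiSeq chips, which were tracked via a hybridised Cy3 probe at 37 °C. Tiles were imaged over ~14 h after glucosamine-6-phosphate (40 μM to 10 mM) in HEPES/KCl/Mg(OAc)2 buffer was flowed in. Normalised per-tile medians were fit to one- or two-exponential decays for kobs, and kcat and KM came from weighted Michaelis–Menten fits.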

glucosamine-6-phosphate [2] = variants of: B1; assay: self-cleavage kobs at 160 uM GlcN6P; higher = faster cleavage; RNA array
In short: as §1

glucosamine-6-phosphate [3] = variants of: B1; assay: self-cleavage kobs at 2500 uM GlcN6P; higher = faster cleavage; RNA array
In short: as §1

glucosamine-6-phosphate [4] = variants of: B1; assay: self-cleavage kobs at 10000 uM GlcN6P; higher = faster cleavage; RNA array
In short: as §1

Variant	self-cleavage kobs at 640 uM GlcN6P (glucosamine-6-phosphate [1]) [s⁻¹]	self-cleavage kobs at 160 uM GlcN6P (glucosamine-6-phosphate [2]) [s⁻¹]	self-cleavage kobs at 2500 uM GlcN6P (glucosamine-6-phosphate [3]) [s⁻¹]	self-cleavage kobs at 10000 uM GlcN6P (glucosamine-6-phosphate [4]) [s⁻¹]
U45A G51C A52C C70U	< 1e-05	< 1e-05	–	–
U45A G60A G66U	< 1e-05	< 1e-05	< 1e-05	–
U45C C58A G62C C71U	< 1e-05	–	–	–
U45C G62C C67U	< 1e-05	< 1e-05	–	–
U45C U47C	0.000179 ± 5.5e-05	–	0.000515 ± 0.00013	–
U45C U65C G66U C68G	< 1e-05	–	< 1e-05	–
U45G A64C C67G	< 1e-05	–	–	–
U45G C67U C70U C71U	< 1e-05	–	–	–
U45G G51U A53C U57A	< 1e-05	–	< 1e-05	–
U45G G59U C71G	< 1e-05	–	< 1e-05	–
U45G G60U G62C C70U	< 1e-05	–	< 1e-05	–
U45G G66C	0.000414 ± 0.00017	–	0.000927 ± 0.00042	0.00369 ± 0.00067
U45G U49C G63A	< 1e-05	–	–	–
U46A G66A	0.000156 ± 3.3e-05	–	0.000321 ± 8.6e-05	0.00063 ± 7.9e-05
U46C C61G G63A C70A	< 1e-05	–	< 1e-05	–
U46C G51C A52C	< 1e-05	< 1e-05	< 1e-05	–
U46C U49G	4.66e-05 ± 1.2e-05	–	8.96e-05 ± 1.6e-05	–
U46G A52C	< 1e-05	< 1e-05	–	< 1e-05
U46G A52U C58U A64G	< 1e-05	–	< 1e-05	–
U46G C68G	5.11e-05 ± 1.8e-05	–	7.97e-05 ± 1.8e-05	9.69e-05 ± 1.7e-05
U46G U56G C70U	0.000436 ± 9.2e-05	0.000211 ± 5.3e-05	0.00119 ± 0.00031	–
U46G U57C G60U	< 1e-05	–	–	–
U47A A52C C71A	< 1e-05	–	< 1e-05	–
U47C C70G	0.000172 ± 3.5e-05	7.93e-05 ± 2.2e-05	0.00012 ± 3e-05	0.000256 ± 0.0001
U47G A53G U57C C68U	3.09e-05 ± 1.2e-05	–	3.84e-05 ± 1.3e-05	8.44e-05 ± 1.8e-05
U47G G51A A52G U65G	< 1e-05	–	< 1e-05	–
U47G G51U	< 1e-05	–	–	–
